To fix the notation:
B1: TPR 5TU (parent)
chain: GGAUCUUCUCGAUCUAACAAAAAAGACAAAUCUGCCACAAAGCUUGAGAGCAUCUUCGGAUGCAGAGGCGGCAGCCUUCGGUGGCGCGAUAGCGCCAACGUUCUCAACUAUGACACGCAAAACGCGUGCUCCGUUGAAUGGAGUUUAUCAUG

Data on 167 variants can be found in the RNAGym collection of RNA variant scans (doi:10.1073/pnas.2313332121).

Variants at the background level are over-represented here.

The data set covers variants of B1. Description: polymerase ribozyme fitness, log enrichment relative to wild type (log ratio); higher = more active; in vitro selection for triplet polymerase activity. The gist of the method: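 For each subunit of a heterodimeric triplet polymerase ribozyme, a mutant library was built by PCR and transcribed, then taken through a single in vitro selection round in triplicate. Selection involved annealing to a biotinylated primer, the partner subunit and triplets, incubation frozen at −7 °C, gel excision of extended constructs, capture on streptavidin beads and RT-PCR. Genotypes were retained after Illumina sequencing of inputs and outputs only with ≥10 input reads and ≥1 read in each output. Fitness is defined as the logarithm of a genotype's enrichment relative to wild-type enrichment, using inverse-variance-weighted averages across replicates, with the logarithm taken to base 2.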
Regarding U90C A91G, the “polymerase ribozyme fitness (log ratio)” value is ≤ -4.2. For G88C C95U A115U, the “polymerase ribozyme fitness (log ratio)” value is ≤ -4.2. As for A89U C95A C103G G117C A120C, the figure is ≤ -4.2; as for G92C U104G C116U A121U C129U G136U, ≤ -4.2; as for G88C C129G, ≤ -4.2.

Take A91U C131G: the “polymerase ribozyme fitness (log ratio)” value was ≤ -4.2. G88U A113U A120U C131U U148G: the “polymerase ribozyme fitness (log ratio)” value was ≤ -4.2. With U90A C93G the figure was ≤ -4.2; with G92A C95A A110U, ≤ -4.2; with C87U G100U A106U C149G, ≤ -4.2. As for G92A A113C, the figure is -4.16.

Consider G88C U104G, for which the “polymerase ribozyme fitness (log ratio)” value is ≤ -4.2.

Turning to A91U A98U, the “polymerase ribozyme fitness (log ratio)” value was ≤ -4.2.

A89G C93G U102G C103G C108U A138U: the “polymerase ribozyme fitness (log ratio)” value is ≤ -4.2. As for G88A A113G U144C, the figure is ≤ -4.2; as for A91C U102G A150U, ≤ -4.2; as for U90A A119U A121G A142G U144C A150C, ≤ -4.2. With A89G G126U U148G the figure was -4.06; with A89G C95A G136U, -3.75. With G92A C96U A107C the figure was ≤ -4.2; with G88A A91C, ≤ -4.2; with G88A C125U G133A G140C, ≤ -4.2.

For A89U C93U, the “polymerase ribozyme fitness (log ratio)” value is -1.6. Take A89C: the “polymerase ribozyme fitness (log ratio)” value is -0.82. As for A89G, the figure is -0.999; as for A89U, -0.292. As to A91G C114A A150C, the “polymerase ribozyme fitness (log ratio)” value is ≤ -4.2. As for U90G A97G, the figure is ≤ -4.2; as for U90G G143C, ≤ -4.2. With C87G U111G the figure was ≤ -4.2. As for C87G C118U, the figure is ≤ -4.2; as for G88C U146A, ≤ -4.2. Take G88C U146G: the “polymerase ribozyme fitness (log ratio)” value is ≤ -4.2.

For G88C A97U, the “polymerase ribozyme fitness (log ratio)” value was ≤ -4.2. As for A89C C93G C103G, the figure is ≤ -4.2; as for G88U A121C, ≤ -4.2. As for A89C C108G C132G, the “polymerase ribozyme fitness (log ratio)” value is ≤ -4.2. Turning to A91G C105U C131A, the “polymerase ribozyme fitness (log ratio)” value is -3.83.

Take G88C C96U: the “polymerase ribozyme fitness (log ratio)” value is ≤ -4.2. As for C87U U102C A147C, the figure is -2.24; as for A91U C108G, ≤ -4.2; as for G88C G100A A107U G141C, ≤ -4.2. With G92A C103U G126U C149A A150U the figure was ≤ -4.2.

For A91U C103U U145A, the “polymerase ribozyme fitness (log ratio)” value was ≤ -4.2.

In the case of G92A A97G A122U U148C, the “polymerase ribozyme fitness (log ratio)” value is -3.63. As for U90G U127C, the figure is ≤ -4.2.

As to C87U A89C U139G, the “polymerase ribozyme fitness (log ratio)” value was -2.56. As for A89G G117U, the figure is -0.974; as for C87U U90C, -3.33. As for G92C A98G A115U, the figure is -2.44; as for C87U A98G C105G C131G, ≤ -4.2; as for U90G G140C, ≤ -4.2.

As for C87U C93G G100A, the “polymerase ribozyme fitness (log ratio)” value is ≤ -4.2. As for A91C U102G A138C, the figure is ≤ -4.2. Regarding A91U A115G C118U U127G, the “polymerase ribozyme fitness (log ratio)” value is ≤ -4.2. As for A91U A119U G136U G141C G143C, the figure is ≤ -4.2.

Take G88A A137U: the “polymerase ribozyme fitness (log ratio)” value was ≤ -4.2. As for A91C A107U, the figure is ≤ -4.2. In the case of C87U C123U C149G, the “polymerase ribozyme fitness (log ratio)” value was -2.65. With G88U U90C G133C A137C the figure was ≤ -4.2. For C87G U109G, the “polymerase ribozyme fitness (log ratio)” value is ≤ -4.2. With G88C U127G the figure was ≤ -4.2; with G88A G92A C132G U148A, ≤ -4.2. Take G88C C95U C118U: the “polymerase ribozyme fitness (log ratio)” value is ≤ -4.2. As for U90G C96A C131G, the figure is ≤ -4.2; as for G92A G94U C96G U102C, ≤ -4.2; as for C87U C105U C132G, ≤ -4.2. With C87U C99G the figure was -1.97. With U90G G92C U146A the figure was ≤ -4.2; with G88C A89G A98U, ≤ -4.2. On to C87U C96U, for which the “polymerase ribozyme fitness (log ratio)” value was -1.

As for C87G U146A, the “polymerase ribozyme fitness (log ratio)” value is ≤ -4.2. As for C87G U146C, the figure is ≤ -4.2; as for A91G U102G, ≤ -4.2. With G88U U109G the figure was ≤ -4.2; with U90G C96A C118A, ≤ -4.2; with G88U C105A, ≤ -4.2. With G92A G133U G143C the figure was ≤ -4.2. C87G C114G: the “polymerase ribozyme fitness (log ratio)” value is ≤ -4.2. For the variant A91G U144A C149A, the “polymerase ribozyme fitness (log ratio)” value was ≤ -4.2. With C87U A142G the figure was -0.623; with G92A G100U A138C, ≤ -4.2.

As for G92A C123A U134G, the “polymerase ribozyme fitness (log ratio)” value was ≤ -4.2. As for A91C C95U C96A A106C U111A A150C, the figure is ≤ -4.2. As for A91C C103G A115U U135C U144A, the figure is ≤ -4.2. Regarding G88A A97C U101G, the “polymerase ribozyme fitness (log ratio)” value was ≤ -4.2.

Regarding G92A U104G A110G, the “polymerase ribozyme fitness (log ratio)” value was -3.8. As for C87G G92C C105U, the figure is 0.371; as for A89C C96A A97G C114G G143A, ≤ -4.2; as for C87U G141A, -0.85. As for G92A G133U U144G, the figure is ≤ -4.2; as for A91U C118G G141C, -3.94. For the variant C87U A150C, the “polymerase ribozyme fitness (log ratio)” value is -3.7. As for A91U U109A U127A, the figure is ≤ -4.2; as for G88C G140A, ≤ -4.2. As for A91U U130A, the figure is ≤ -4.2; as for A91U A98U A138G, ≤ -4.2; as for C87U A91C, ≤ -4.2. As for G88C A98U A142C, the “polymerase ribozyme fitness (log ratio)” value is ≤ -4.2. With A91G C93A the figure was ≤ -4.2. As for U90G C95U U109G A137C, the figure is ≤ -4.2; as for A91C U101G A150C, ≤ -4.2; as for A91G G152A, -3.71.

As for C87G C105U U127C, the “polymerase ribozyme fitness (log ratio)” value was -4.1.

In the case of U90G A106C G133C, the “polymerase ribozyme fitness (log ratio)” value is ≤ -4.2. With G92A A110U C131A U148A the figure was ≤ -4.2; with G92C C99A A138C, ≤ -4.2; with A91G C96U A106G, -2.5. As for G88U G141C U146G, the figure is ≤ -4.2; as for A91G A113C U127C U146G, ≤ -4.2; as for C87U C99G C131U C132G U144G, ≤ -4.2. As for C87U C108G U145G, the figure is ≤ -4.2; as for G92A C93G C103G C116A U139C, ≤ -4.2.

A91G A97G U109G C149U: the “polymerase ribozyme fitness (log ratio)” value is ≤ -4.2.

G88C G100C A106G U146C: the “polymerase ribozyme fitness (log ratio)” value is ≤ -4.2.

Turning to A89C C96U, the “polymerase ribozyme fitness (log ratio)” value was -1.26. With A91U C116U the figure was ≤ -4.2; with C87U G117C U144A, -1.27; with A89U U90C G94U C114U G117U G133U, ≤ -4.2.

As for C87U U127A C132G, the “polymerase ribozyme fitness (log ratio)” value was ≤ -4.2. In the case of C87U G88U, the “polymerase ribozyme fitness (log ratio)” value is ≤ -4.2. With A89U A91U C93U C95A the figure was ≤ -4.2. Turning to G92A C93U C96U, the “polymerase ribozyme fitness (log ratio)” value was ≤ -4.2. With U90G G92U C99G A150U the figure was ≤ -4.2. As for A91U G128U, the figure is ≤ -4.2; as for C87U C132U, -1.11. With A91G U145G the figure was -3.96. Consider A91U G143A, for which the “polymerase ribozyme fitness (log ratio)” value is ≤ -4.2. With G88U C99G the figure was ≤ -4.2. With A91C C93U C125G the figure was ≤ -4.2. For C87G U102G U145G, the “polymerase ribozyme fitness (log ratio)” value is ≤ -4.2. With G92A C105A the figure was -3.36. As for G92A C96A C103G C105U A107G A119G C125U C149A, the figure is ≤ -4.2. With A91U A97C A115U A122G the figure was ≤ -4.2. For G88U C93U C103U G136C U139C, the “polymerase ribozyme fitness (log ratio)” value is ≤ -4.2. As for C87U A120G, the figure is -1.85; as for A89C A107C, -4.06.

As to A89C A107U, the “polymerase ribozyme fitness (log ratio)” value is ≤ -4.2.

With C87U C118U U135G, the “polymerase ribozyme fitness (log ratio)” value was ≤ -4.2. As for G92C G124U C129U A138G U139G, the figure is ≤ -4.2. With A89U C108A C132U the figure was ≤ -4.2. As for A89C G143A, the figure is -0.0918; as for U90G A119U U130G G136U, ≤ -4.2. On to A89U C96U A138G U146G, for which the “polymerase ribozyme fitness (log ratio)” value was ≤ -4.2. With C87U C123U G126U the figure was 0.848; with G92A U104A U109G U144A, ≤ -4.2. As for G88U U104G A150U, the figure is ≤ -4.2; as for G92C U104C, -1.35. With A91U A106G U111A G117U the figure was ≤ -4.2; with C87G U139A A147C, ≤ -4.2. Consider A91U C93U, for which the “polymerase ribozyme fitness (log ratio)” value was ≤ -4.2.

Consider A91U C114U A150G, for which the “polymerase ribozyme fitness (log ratio)” value was ≤ -4.2. As for C87G U102G C125U, the figure is ≤ -4.2; as for A89U G100C U102G, ≤ -4.2; as for A91U U111G, ≤ -4.2.

Consider A91C G126A, for which the “polymerase ribozyme fitness (log ratio)” value is -4.03. With G88A A98U A106C the figure was ≤ -4.2.

C87U C118U A147U: the “polymerase ribozyme fitness (log ratio)” value was -0.411. As for C87U C116A G117C C118G, the figure is -1.82. With A91U A113C the figure was ≤ -4.2; with G92A A106C U111G G136A, ≤ -4.2; with G88C G126C, ≤ -4.2. As for A91G C118U, the figure is -3.15. Regarding A91G C118G, the “polymerase ribozyme fitness (log ratio)” value was -3.49. With G92A A97G C99A C149A A150C the figure was ≤ -4.2; with G92A G100C, -4.07. With A91G U144A the figure was -3.08.
